Laboratory results from the RNAGym collection of RNA variant scans (doi:10.1073/pnas.2313332121).
Variants at the background level are over-represented here.

B1: TPR 5TU (parent)
chain: GGAUCUUCUCGAUCUAACAAAAAAGACAAAUCUGCCACAAAGCUUGAGAGCAUCUUCGGAUGCAGAGGCGGCAGCCUUCGGUGGCGCGAUAGCGCCAACGUUCUCAACUAUGACACGCAAAACGCGUGCUCCGUUGAAUGGAGUUUAUCAUG

Variants of: B1
Experiment: polymerase ribozyme fitness, log enrichment relative to wild type (log ratio); higher = more active; in vitro selection for triplet polymerase activity
Method in brief: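 Mutant libraries of both subunits of a heterodimeric triplet polymerase ribozyme were PCR-built, transcribed, and selected once in triplicate, with frozen incubation at −7 °C and capture of gel-excised extended constructs on streptavidin beads before RT-PCR. Illumina sequencing of input and output libraries was filtered to genotypes with ≥10 input reads and ≥1 read per output. Fitness is the logarithm of genotype enrichment over wild-type enrichment, using inverse-variance-weighted replicate averages. The logarithm is base 2.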

Row | Variant | polymerase ribozyme fitness (log ratio)
1 | G84U G94C U134A | ≤ -4.2
2 | G84U G117U | -1.61
3 | G84U G133U | ≤ -4.2
4 | G84U U90G | ≤ -4.2
5 | G84U U101G G143U | ≤ -4.2
6 | G84U U145A | -1.53
7 | G84U U148A | ≤ -4.2
8 | G84U U148G | ≤ -4.2
9 | G84U U151A | ≤ -4.2
10 | C85A A89U C105U G133A U134G U145G | ≤ -4.2
11 | C85A A91U | ≤ -4.2
12 | C85A A91U C95A | ≤ -4.2
13 | C85A A91U G140C | ≤ -4.2
14 | C85A A106G U135G A142U | ≤ -4.2
15 | C85A A120C A121U U130C U151G | ≤ -4.2
16 | C85A A121U U127C | -1.47
17 | C85A A138U | ≤ -4.2
18 | C85A C87G C96A C125U | ≤ -4.2
19 | C85A C87G C129G G141C | ≤ -4.2
20 | C85A C87U A98C | -3.62
21 | C85A C87U U101G G136U | ≤ -4.2
22 | C85A C93A G141U | ≤ -4.2
23 | C85A C93G | ≤ -4.2
24 | C85A C93U C123G G124U | ≤ -4.2

Row | Variant | polymerase ribozyme fitness (log ratio)
25 | C85A C95G U101A C118U | ≤ -4.2
26 | C85A C95U C108A C129U U148A | ≤ -4.2
27 | C85A C96G A97U | ≤ -4.2
28 | C85A C96U A119C | -0.783
29 | C85A C116G | -0.2
30 | C85A C118G | -0.907
31 | C85A C118U | -0.342
32 | C85A C129U | -0.397
33 | C85A G86C A110C C149G | ≤ -4.2
34 | C85A G86U A89U A91G | ≤ -4.2
35 | C85A G92A A106U A107U | ≤ -4.2
36 | C85A G94C G140C | ≤ -4.2
37 | C85A G117C C118A A147U | -0.0649
38 | C85A G126U G140C | ≤ -4.2
39 | C85A G136A | -1.05
40 | C85A G141A | -1.85
41 | C85A G141C | -1.46
42 | C85A G143C | -3.01
43 | C85A G143U | -2.37
44 | C85A G152C | -2.88
45 | C85A U90A A91C A147C | ≤ -4.2
46 | C85A U90C C116A A121U G124U G126C G136U | ≤ -4.2
47 | C85A U90G | ≤ -4.2
48 | C85A U130A C132G | ≤ -4.2

Row | Variant | polymerase ribozyme fitness (log ratio)
49 | C85A U139A | ≤ -4.2
50 | C85A U139G | -1.11
51 | C85G A89C | ≤ -4.2
52 | C85G A106U A107C G133C G141C | ≤ -4.2
53 | C85G A107C | ≤ -4.2
54 | C85G A110C C116U G140A | ≤ -4.2
55 | C85G A115U A121G A142G U144G | ≤ -4.2
56 | C85G A119G | -1.7
57 | C85G A121U U151G | ≤ -4.2
58 | C85G A122G C131A C132A | ≤ -4.2
59 | C85G A137C | ≤ -4.2
60 | C85G C87A A91U G124C | ≤ -4.2
61 | C85G C87G C103U C132U U134A U135C U145A | ≤ -4.2
62 | C85G C95A C99G C103G G124U | ≤ -4.2
63 | C85G C95A C103A | ≤ -4.2
64 | C85G C96U C99G C114A A115U | ≤ -4.2
65 | C85G C99U C129G | ≤ -4.2
66 | C85G C103A G143C | ≤ -4.2
67 | C85G C108G U134A G136C A142C | ≤ -4.2
68 | C85G C114A A150C | ≤ -4.2
69 | C85G C114G C129U U135G | ≤ -4.2
70 | C85G C114G G141U | -4.17
71 | C85G C114U C116A C118U G141U | ≤ -4.2
72 | C85G C116G G141U | ≤ -4.2

Row | Variant | polymerase ribozyme fitness (log ratio)
73 | C85G C118U A121G U135A U144A U148G | ≤ -4.2
74 | C85G C125A U144A | -3.57
75 | C85G C125G U127A A137G | ≤ -4.2
76 | C85G C129G | -4.11
77 | C85G C131G G152U | ≤ -4.2
78 | C85G C132G | ≤ -4.2
79 | C85G G86A A119C | ≤ -4.2
80 | C85G G92A G133A G140A | ≤ -4.2
81 | C85G G92C A107C U139C | ≤ -4.2
82 | C85G G92U A138U U145A | ≤ -4.2
83 | C85G G94A G117U G124U U135G | -3.69
84 | C85G G126U U134C A137U A147U G152U | ≤ -4.2
85 | C85G G128A A138U | ≤ -4.2
86 | C85G G136A | -1.31
87 | C85G G143U U146C U148G | ≤ -4.2
88 | C85G U90G | ≤ -4.2
89 | C85G U104G G141U | ≤ -4.2
90 | C85G U130G | ≤ -4.2
91 | C85G U135C G136A U146G | ≤ -4.2
92 | C85G U139A | -4.19
93 | C85U A89U A106G C125G | -1.15
94 | C85U A91G G126C G140U | ≤ -4.2
95 | C85U A91U C95G | ≤ -4.2
96 | C85U A97C G112C G133C | ≤ -4.2

Row | Variant | polymerase ribozyme fitness (log ratio)
97 | C85U A97U C99G C114A | ≤ -4.2
98 | C85U A98G A113U U135C | -3.59
99 | C85U A110G C114G C125A | ≤ -4.2
100 | C85U A115C G128U | ≤ -4.2
101 | C85U A120G | -1.65
102 | C85U A122G G140U U144G | ≤ -4.2
103 | C85U A147G | -1.25
104 | C85U A150C | -2.26
105 | C85U C87G G140C | ≤ -4.2
106 | C85U C87U C93U U101C G140C A142C | ≤ -4.2
107 | C85U C93A A98G A106U G112A A137U | ≤ -4.2
108 | C85U C93A U144A | ≤ -4.2
109 | C85U C95A G136U A138C | ≤ -4.2
110 | C85U C95A U127G | -3.88
111 | C85U C95G | -2.03
112 | C85U C95U C116A G117A A119G | ≤ -4.2
113 | C85U C96A U111A A142G | ≤ -4.2
114 | C85U C96G U135C | -2.57
115 | C85U C99G | -1.07
116 | C85U C99U | -2.35
117 | C85U C99U C108U C116U A147U C149U | ≤ -4.2
118 | C85U C103G | -3.48
119 | C85U C103G C108U A115U G143A | ≤ -4.2
120 | C85U C108G | ≤ -4.2

Row | Variant | polymerase ribozyme fitness (log ratio)
121 | C85U C108U | -3.1
122 | C85U G86U A91C G124A G141A U148A | ≤ -4.2
123 | C85U G88A U151G | ≤ -4.2
124 | C85U G88C G117U A119U G141A | ≤ -4.2
125 | C85U G88C U148G | ≤ -4.2
126 | C85U G88U U104G G124A A150G | ≤ -4.2
127 | C85U G92A G143C | ≤ -4.2
128 | C85U G92A G143U | -4.16
129 | C85U G94A A107G | ≤ -4.2
130 | C85U G94A A121C A138U | -4.08
131 | C85U G94C G143A | -1.78
132 | C85U G112A C114U | ≤ -4.2
133 | C85U G126A A142G | -0.307
134 | C85U G126A G128U U146A | ≤ -4.2
135 | C85U G136C U151C | ≤ -4.2
136 | C85U G140U | -2.51
137 | C85U G143C | -1.66
138 | C85U U101G C108G | ≤ -4.2
139 | C85U U101G C125U | -0.351
140 | C85U U101G C125U C129A | ≤ -4.2
141 | C85U U102A U104G A107U C114A A138G | ≤ -4.2
142 | C85U U102G | -3.32
143 | C85U U102G C103A A137G | ≤ -4.2
144 | C85U U111C C125A | ≤ -4.2

Row | Variant | polymerase ribozyme fitness (log ratio)
145 | C85U U127C A137U | ≤ -4.2
146 | C85U U127G | -3.46
147 | C85U U134C | -1.76
148 | C85U U144A | -0.618
149 | C85U U148G | ≤ -4.2
150 | G86A A97G U135C | ≤ -4.2
151 | G86A C87A | ≤ -4.2
152 | G86A C87U U144C | ≤ -4.2
153 | G86A C103G A147G | ≤ -4.2
154 | G86A C103G G133C G141U | ≤ -4.2
155 | G86A C103U | -1.01
156 | G86A C105G A138U | ≤ -4.2
157 | G86A C114A | -4.1
158 | G86A U90C U102C A137G | ≤ -4.2
159 | G86A U101G A107G A121C G126C | ≤ -4.2
160 | G86A U109C C123A C132G | ≤ -4.2
161 | G86C A89U | -2.94
162 | G86C A106G A142C | ≤ -4.2
163 | G86C A142C | ≤ -4.2
164 | G86C A142G | ≤ -4.2
165 | G86C C87G C108G | ≤ -4.2
166 | G86C C96G A142U | ≤ -4.2
167 | G86C C99U | -2.83
